Results from PubChem BioAssay AID485367 (National Center for Advancing Translational Sciences (NCATS), 2010).
About 560 (0.17%) of roughly 330,000 compounds were called active. This list was built around the results that the source calls inconclusive (neither active nor inactive); the mix of calls is not that of the screen. Calls follow the shape of the dose curve; as a rule, active = well fitted inhibition curve with a large enough effect; inconclusive = small, poorly fitted or top-dose-only effect, or effect the other way; inactive = flat fitted curve, though single readings scatter. Potencies of inconclusive entries are left out as doubtful fits.
Also: nearly all actives have a fitted effect of over 60% in size.
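For activity, negative = inhibition in this document: 0% = uninhibited 1x PFK enzyme wells and -100% = no-enzyme wells.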
Potency is read from the fitted curve at half-maximal effect; tags tell the direction and shape of the fitted curve.

The compounds below were run against ATP-dependent 6-phosphofructokinase (Trypanosoma brucei brucei) (UniProt O15648) (assay: qHTS Assay to Find Inhibitors of T. brucei phosphofructokinase). Conditions: T. brucei PFK, ADP-Glo luminescence; activity, negative = inhibition: at 57.5 µM (top of the series).
Sequence of UniProt O15648 (O15648 whole entry, looked up): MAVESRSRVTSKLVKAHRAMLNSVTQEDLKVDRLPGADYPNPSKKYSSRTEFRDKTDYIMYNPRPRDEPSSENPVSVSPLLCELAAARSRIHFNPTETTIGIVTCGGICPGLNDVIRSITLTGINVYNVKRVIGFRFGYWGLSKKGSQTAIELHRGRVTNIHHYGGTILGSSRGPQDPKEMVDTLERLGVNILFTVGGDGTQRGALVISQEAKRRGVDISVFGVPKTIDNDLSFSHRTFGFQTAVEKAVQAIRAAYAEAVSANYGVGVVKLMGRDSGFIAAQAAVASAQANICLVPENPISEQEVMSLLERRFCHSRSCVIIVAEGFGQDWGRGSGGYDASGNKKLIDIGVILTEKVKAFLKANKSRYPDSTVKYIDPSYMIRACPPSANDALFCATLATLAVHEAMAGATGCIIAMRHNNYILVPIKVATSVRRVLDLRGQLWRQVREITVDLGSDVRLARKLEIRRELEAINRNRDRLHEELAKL
Outline: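 PFK 1.25 nM, F6P 0.5 mM, ATP 0.1 mM, 0.1 M TEA pH 8.0, 5 mM MgCl2, 0.01% Tween20, 0.1% BSA; 45 min RT. ADP-Glo readout. qHTS titration up to 57 uM; curves fitted, compounds curve-classed.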
For `CCCOc1ccc(N2C(=O)CC(N3CCN(CCN=CC4=C(O)CC(C)(C)CC4=O)CC3)C2=O)cc1` (centres undefined), the Potency was inconclusive [falling, single point]. `Cc1ccc([N+](=O)[O-])cc1NC(=O)Nc1ccc(S(N)(=O)=O)cc1` was tested, and the Potency was active: 12 µM. `O=c1/c(=C\c2cc([N+](=O)[O-])cc([N+](=O)[O-])c2O)sc2nc3ccccc3n12` was tested, and the Potency was inconclusive [activator, partial curve]. With `O=C(CN1C(=O)c2cccc([N+](=O)[O-])c2C1=O)OCC(=O)N1CCCCC1` the Potency was “inactive”. `N#Cc1ccccc1S(=O)(=O)N1CCN(C(=O)c2cc3c(s2)CCC3)CC1` was tested, and the Potency was “inactive”. In the case of `COc1ccc(NC(=O)CN(C)C(=O)c2ccccc2SCC(=O)N2CCCC2)cc1`, the Potency is reported as inconclusive [falling, single point]. For `C/C(=N\NC(=O)Cc1ccc(F)cc1)c1ccc(O)cc1`, the Potency was inconclusive [falling, single point]. In the case of `Cc1ccc(/C=c2\sc3nc(-c4ccco4)nn3c2=O)o1`, the Potency is reported as active: 21.3 µM. In the case of `Nc1c(C(=O)CSc2nccn2-c2cccc(F)c2)c(=O)[nH]c(=O)n1C1CC1`, the Potency is reported as “inactive”. For `Cc1oc2c(c1C(=O)c1ccc(Cl)cc1)C(=O)C(=O)c1ccccc1-2`, the Potency was “inactive”. In the case of `O=C(CSc1nc(-c2ccccc2)c(-c2ccccc2)[nH]1)NCc1ccco1`, the Potency is reported as “inactive”. With `COc1cc(C(=O)NCC(=O)Nc2ccc(F)c(F)c2)ccc1OCC(=O)N1CCOCC1` the Potency was inconclusive [falling, single point]. For `Cc1ccc(C(=O)NCC(=O)OCc2nnc(-c3ccccc3)o2)cc1`, the Potency was inconclusive [falling, single point]. In the case of `NC(=O)CSc1nc2cc(S(=O)(=O)N3CCOCC3)ccc2o1`, the Potency is reported as “inactive”. `COc1ccc(Br)cc1/C=N/NC(=O)CN1CCCCC1` was tested, and the Potency was inconclusive [falling, single point]. With `CC(=O)Nc1cccc(NC(=O)c2ccc([N+](=O)[O-])cc2Cl)c1` the Potency was “inactive”. In the case of `Cc1ccc2c(CC(=O)N3CCN(S(=O)(=O)c4ccccc4)CC3)coc2c1`, the Potency is reported as inconclusive [falling, partial curve]. In the case of `C=CCn1c(O)c(N=NC(=O)CNC(=O)/C=C/c2ccco2)c2ccccc21`, the Potency is reported as inconclusive [falling, partial curve]. With `O=c1[nH]c(SCc2nc3ccccc3c(=O)n2-c2ccccc2C(F)(F)F)nc2ccccc12` the Potency was “inactive”. In the case of `O=C(CCc1ccccc1)NCCC1=CCCCC1`, the Potency is reported as inconclusive [falling, single point]. With `O=C(CCC1CCCN(C(=O)c2ccsc2)C1)NCc1ccc(F)c(F)c1` (centres undefined) the Potency was inconclusive [falling, single point]. In the case of `O=C(Nc1nc2ccsc2c(=O)s1)c1ccco1`, the Potency is reported as inconclusive [falling, single point]. With `O=C(OCCN1C(=O)c2cccc3c(N4CCOCC4)ccc(c23)C1=O)c1ccc(Cl)cc1` the Potency was “inactive”. `COC(=O)CC1(C(=O)OC)Oc2ccc(Br)cc2C(=O)N1c1ccc(Br)cc1Cl` (centres undefined) was tested, and the Potency was “inactive”. `Cn1c(=O)c2sccc2n2c(CCCC(=O)NCc3ccc(F)cc3)nnc12` was tested, and the Potency was “inactive”. For `Cc1cccc(N2CCN(Cc3c(C)n(C)n(-c4ccccc4)c3=O)CC2)c1C`, the Potency was inconclusive [falling, full curve, poor fit]. In the case of `Cc1nc(C)c(-c2csc(Nc3ccc(C(=O)O)c(O)c3)n2)s1`, the Potency is reported as “inactive”. For `O=C(NCc1cc2ccccc2[nH]1)c1ccccc1F`, the Potency was inconclusive [falling, single point]. For `CC(CNC(=O)C(=O)NC(C)CCc1ccccc1)Cc1ccccc1` (centres undefined), the Potency was inconclusive [falling, single point]. With `O=C(NCC(F)(F)F)c1ccc(S(=O)(=O)Nc2ccccc2N2CCCC2)cc1` the Potency was inconclusive [activator, partial curve]. `N#CCN1C(=O)C(=O)N(Cc2cccc(Cl)c2)C1=O` was tested, and the Potency was inconclusive [falling, single point]. In the case of `CCOc1ccc(C(=O)O/N=C(\N)c2ccccn2)cc1`, the Potency is reported as inconclusive [falling, partial curve]. In the case of `O=C(CSc1nc2ccccc2s1)Nc1ccc2c(c1)OCO2`, the Potency is reported as inconclusive [activator, single point]. For `Cc1ccc(C)c(OCCn2ccnc2)c1`, the Potency was inconclusive [falling, single point]. In the case of `Cc1cc(C)c2c(n1)sc1c(O)cc(=O)[nH]c12`, the Potency is reported as “inactive”. With `CCn1c(C)c(C)c2cc(C(=O)NCCc3ccco3)ccc21` the Potency was “inactive”. `O=C(NCCNC(=O)c1ccco1)c1ccc(Cl)c(Cl)c1` was tested, and the Potency was inconclusive [falling, single point]. In the case of `COc1ccc(N2CCN(C(=O)CSc3ncn[nH]3)CC2)cc1`, the Potency is reported as “inactive”. `COc1ccc([C@]23Cc4ccccc4C(O2)C2=C(O3)C(=O)c3ccccc3C2=O)cc1` was tested, and the activity, negative = inhibition was inactive: 2.14% [at 11.5 µM]. With `Cc1cccn2c(=O)c3cc(C(N)=S)c(=N)n(CCCOC(C)C)c3nc12` the Potency was inconclusive [falling, single point]. For `CCCCCCCCCn1c2c(c(=N)c3c1CCC3)CCC2`, the Potency was “inactive”. `CC(=O)Nc1ccc(SCC(=O)c2ccc(Br)s2)cc1` was tested, and the Potency was active: 23.9 µM. In the case of `O=C(Nc1nnc(-c2ccc3c(c2)CCCC3)o1)c1c(F)cccc1F`, the Potency is reported as inconclusive [activator, single point]. In the case of `C#CCNCCS(=O)(=O)N(Cc1ccc(Br)cc1)[C@@H](C)C(=O)O`, the Potency is reported as “inactive”. `COc1ccccc1C(c1nnnn1Cc1ccco1)N1CCN(c2cccc(C)c2C)CC1` (centres undefined) was tested, and the Potency was “inactive”. In the case of `Cc1c(Br)c([N+](=O)[O-])nn1CC(=O)Nc1cccc2nonc12`, the Potency is reported as active: 7.57 µM. With `COc1cc(/C=C/c2[nH]c(=O)[nH]c(=O)c2[N+](=O)[O-])cc([N+](=O)[O-])c1O` the Potency was inconclusive [activator, partial curve]. For `Cc1nc2cc(NC(=O)COc3ccc(C#N)cc3)ccc2n1-c1ccccc1`, the Potency was active: 21.3 µM. `COc1ccc(C(=O)NCc2cc(C)nc3ccccc23)cc1` was tested, and the Potency was “inactive”. For `CCOC(=O)c1c(NC(=S)N2CCN(C)CC2)sc(C)c1-c1ccccc1`, the Potency was “inactive”. With `COc1ccc(S(=O)(=O)N2CCCCCC2)cc1C(=O)N1CCN(c2ccccc2O)CC1` the Potency was inconclusive [falling, single point]. With `Cc1c(O[C@@H]2O[C@H](CO)[C@@H](O)[C@H](O)[C@H]2O)ccc2c1oc(=O)c1ccccc12` the Potency was inconclusive [activator, single point]. For `O=C(c1ccncc1)N1CCN(S(=O)(=O)c2cc(C(F)(F)F)cc(C(F)(F)F)c2)CC1`, the Potency was inconclusive [falling, single point]. In the case of `Cc1[nH]c(=S)sc1Cc1ccc(Cl)c(Cl)c1`, the Potency is reported as active: 19 µM. For `Cc1ccc(SCC(=O)NC(=O)NCc2ccco2)cc1C`, the Potency was inconclusive [falling, single point]. With `CCCCCCCCCn1ccc(=N)cc1` the Potency was “inactive”. In the case of `CN(C)c1ccc(N=Nc2ccc(C(=O)O)cc2)cc1`, the Potency is reported as inconclusive [falling, single point]. `CCCCCCCCCCCNC(=O)c1ccoc1C` was tested, and the Potency was “inactive”. With `CCCc1cc(C(=O)Nc2cccc(Cl)c2C)no1` the Potency was inconclusive [falling, single point]. With `O=C(O)c1ccc(Cl)c2c1C1C=CCC1C(c1ccccn1)N2` (centres undefined) the Potency was inconclusive [falling, single point]. With `CCCOc1ccc(OCCn2nc(C(=O)O)c3ccccc3c2=O)cc1` the Potency was “inactive”. In the case of `O=C(Cc1ccc([N+](=O)[O-])cc1)N/N=C/c1ccc([N+](=O)[O-])o1`, the Potency is reported as inconclusive [falling, single point]. For `Cc1csc(NC(=O)C2CCCN2C(=O)Oc2ccccc2)n1` (centres undefined), the Potency was “inactive”. `CCOc1ccc(C(=S)N2CCCC2)c(OCC)c1` was tested, and the Potency was inconclusive [falling, single point]. In the case of `O=C1OC(/C(=C\Nc2ccc(F)cc2F)[N+](=O)[O-])c2ccccc21` (centres undefined), the Potency is reported as inconclusive [activator, full curve]. `O=C(CCC(=O)N1CCOc2ccc(Cl)cc21)N1CCN(c2ccccn2)CC1` was tested, and the Potency was inconclusive [falling, single point]. `CC(=O)c1ccc(NC(=O)CCc2nc3sc4c(c3c(=O)[nH]2)CCCC4)cc1` was tested, and the Potency was inconclusive [falling, single point]. For `CCN1C=CC(=C2C(=O)c3ccccc3C2=O)C=C1`, the Potency was inconclusive [falling, single point]. In the case of `COc1ccc(OC)c(S(=O)(=O)NCc2csc(-c3ccccc3)n2)c1`, the Potency is reported as inconclusive [activator, full curve, poor fit]. `CCc1nn2c(=O)cc(COC(=O)c3cc(Cl)c(OC)c(OC)c3)nc2s1` was tested, and the Potency was inconclusive [falling, single point]. With `COc1ccc(/C=C/C(=O)NC(=S)Nc2cc([N+](=O)[O-])ccc2O)cc1OC` the Potency was inconclusive [falling, full curve]. `NS(=O)(=O)c1ccc(NC(=O)CSc2nc3ccccc3n2-c2ccccc2)cc1` was tested, and the Potency was inconclusive [falling, single point]. In the case of `C=CCSc1nc2sc3c(c2c(=O)n1CC)CCc1ccccc1-3`, the Potency is reported as active: 13.5 µM. `Cc1cc([N+](=O)[O-])ccc1NCc1cccc([N+](=O)[O-])c1` was tested, and the Potency was inconclusive [falling, partial curve].
